Source: the BET-seq Pho4 binding data (Le et al. 2018)
This is one part of the list. Values were computed here from the reads of four pooled replicates and scatter widely.

target: T1, Pho4 (S. cerevisiae) (UniProt P07270); experiment: relative binding free energy (BET-seq); higher = weaker binding; settings: reference: library average
T1 sequence: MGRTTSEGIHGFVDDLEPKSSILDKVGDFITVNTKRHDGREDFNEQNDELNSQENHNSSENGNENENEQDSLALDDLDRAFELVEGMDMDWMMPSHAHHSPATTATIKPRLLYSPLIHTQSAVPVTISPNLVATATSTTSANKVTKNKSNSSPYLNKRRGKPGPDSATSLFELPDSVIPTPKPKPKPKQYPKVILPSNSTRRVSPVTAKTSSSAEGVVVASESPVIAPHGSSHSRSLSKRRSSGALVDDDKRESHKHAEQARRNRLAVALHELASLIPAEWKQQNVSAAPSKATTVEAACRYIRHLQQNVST

Sequence | relative binding free energy
TTGGACACGTGGGATG | -0.02 kcal/mol
TGCTGCACGTGTGTGT | -0.06 kcal/mol
GTTGGCACGTGGTTTT | 0.02 kcal/mol
TTCGTCACGTGCTGTA | 0.04 kcal/mol
GTTTTCACGTGGGTGC | 0.28 kcal/mol
TGAGTCACGTGGTCTA | 0 kcal/mol
ATGTTCACGTGTGCGG | 0.26 kcal/mol
TTGTGCACGTGCGACT | 0.03 kcal/mol
GACGGCACGTGGGCTG | -0.21 kcal/mol
ATATTCACGTGCGGGC | 0.26 kcal/mol
TATGGCACGTGCGGGC | -0.07 kcal/mol
CGATGCACGTGTGTTG | 0.04 kcal/mol
TGGTCCACGTGCTTGG | -0.12 kcal/mol
TCGTTCACGTGAATGG | 0.4 kcal/mol
GTTTACACGTGACTTT | 0.2 kcal/mol
TGTCCCACGTGTGTGG | 0.02 kcal/mol
GGGATCACGTGAAGTA | 0.41 kcal/mol
TAGATCACGTGGATGG | 0.12 kcal/mol
GATGGCACGTGGGGAC | -0.05 kcal/mol
TTAGTCACGTGAGGTA | 0.36 kcal/mol
ATTCACACGTGTGTAT | 0.16 kcal/mol
TTTCTCACGTGGGGTT | 0.11 kcal/mol
TGTGCCACGTGGGTGG | -0.17 kcal/mol
TGTGCCACGTGGTTCT | -0.17 kcal/mol
CTGGTCACGTGGGATA | 0.06 kcal/mol
GTGTTCACGTGGTACA | 0.22 kcal/mol

Sequence | relative binding free energy
TACGTCACGTGTTGAG | 0.12 kcal/mol
ATGTGCACGTGCGTAA | -0.08 kcal/mol
ATATTCACGTGGGACT | 0.11 kcal/mol
AAATCCACGTGGGGGG | 0 kcal/mol
TTGGTCACGTGTAAGA | 0.08 kcal/mol
TGAAGCACGTGTCTGG | 0 kcal/mol
ACTTGCACGTGGTTAT | -0.17 kcal/mol
GGTAGCACGTGGTTTC | -0.14 kcal/mol
GAAGTCACGTGTAGTT | 0.24 kcal/mol
TGTTTCACGTGGTGAC | 0.2 kcal/mol
AGGTCCACGTGGTGAG | -0.04 kcal/mol
GTTTTCACGTGGACTA | 0.26 kcal/mol
GTCAGCACGTGTTTAG | -0.09 kcal/mol
ATGAACACGTGTGTAG | -0.02 kcal/mol
AGAGTCACGTGACGTG | 0.29 kcal/mol
AGGTTCACGTGAAGTA | 0.39 kcal/mol
TAGTGCACGTGGATGG | -0.01 kcal/mol
TGGCTCACGTGGTGCT | 0.27 kcal/mol
GTGCACACGTGTGAGT | 0.18 kcal/mol
GGAATCACGTGTGTTG | 0.11 kcal/mol
AAGGACACGTGAAGGG | 0.3 kcal/mol
TTTGGCACGTGTTAGA | -0.01 kcal/mol
AAGTTCACGTGGGATT | 0.28 kcal/mol
AGACGCACGTGGGGGT | -0.3 kcal/mol
GTTGTCACGTGCATTA | 0 kcal/mol
TTGAACACGTGAATGG | 0.32 kcal/mol

Sequence | relative binding free energy
CAGGGCACGTGGCGCT | -0.13 kcal/mol
ATGTGCACGTGTGTAG | 0.03 kcal/mol
ACTTTCACGTGTGCGT | 0.14 kcal/mol
TCTTTCACGTGTGGAG | 0.33 kcal/mol
TAAAGCACGTGGGTAA | -0.21 kcal/mol
CGGGGCACGTGATGTC | -0.03 kcal/mol
TTCGGCACGTGGGCGC | -0.2 kcal/mol
GATTTCACGTGGGTGT | 0.22 kcal/mol
GGAAGCACGTGCATGG | -0.14 kcal/mol
TGGTACACGTGGTGAA | -0.02 kcal/mol
TGGTCCACGTGGTTGG | -0.04 kcal/mol
AGTGTCACGTGGGGGG | -0.08 kcal/mol
AGGAGCACGTGATAGT | -0.01 kcal/mol
GTTAGCACGTGGGGGC | -0.14 kcal/mol
CGTTTCACGTGCGTGT | 0.09 kcal/mol
TTGTGCACGTGCCTAT | 0.07 kcal/mol
AGGGTCACGTGCATGA | -0.01 kcal/mol
TTTCACACGTGAGTGT | 0.23 kcal/mol
GGATCCACGTGGGTGG | -0.25 kcal/mol
TATTTCACGTGGTGAC | 0.23 kcal/mol
GTGTACACGTGTTCAT | 0.05 kcal/mol
TGTTGCACGTGGCTGA | -0.11 kcal/mol
ATGCACACGTGGATGT | 0.15 kcal/mol
TTTTACACGTGGTGAG | 0.06 kcal/mol
ACAGGCACGTGGTTAG | -0.22 kcal/mol
GGTTCCACGTGGAGTT | 0.07 kcal/mol

Sequence | relative binding free energy
TCAAGCACGTGGGGCG | -0.15 kcal/mol
TAGTACACGTGTTCGT | 0.05 kcal/mol
GCAGGCACGTGTTTTG | -0.07 kcal/mol
GTATGCACGTGTAATA | 0.04 kcal/mol
GGGTGCACGTGCTATT | 0.04 kcal/mol
GATTGCACGTGAAGTG | 0.26 kcal/mol
AGTATCACGTGGGCGT | 0.09 kcal/mol
GTAGACACGTGAATGT | 0.4 kcal/mol
AAAAGCACGTGGAGGT | -0.24 kcal/mol
GGATCCACGTGATAGG | 0.18 kcal/mol
CATTACACGTGTTTTG | 0 kcal/mol
TGTTACACGTGGGCTC | 0.21 kcal/mol
ATTAGCACGTGTGTGA | -0.02 kcal/mol
AGGGCCACGTGCTGGT | -0.29 kcal/mol
GAGTTCACGTGGGGGG | 0.26 kcal/mol
CAGGGCACGTGGCATG | -0.24 kcal/mol
GGATTCACGTGTTTCG | 0.27 kcal/mol
ATTTGCACGTGGAGGC | 0.04 kcal/mol
GAAGTCACGTGTGGTG | 0.16 kcal/mol
GGACGCACGTGGCGTT | -0.17 kcal/mol
GGCCGCACGTGGTGAT | -0.07 kcal/mol
GTGCTCACGTGACGGT | 0.29 kcal/mol
TTGGCCACGTGGTTTA | -0.04 kcal/mol
AGCGGCACGTGTGGTG | -0.07 kcal/mol
ACGTGCACGTGAGAGG | 0.01 kcal/mol
ACGTGCACGTGGCGTT | -0.12 kcal/mol

Sequence | relative binding free energy
GTCTGCACGTGCGGAT | 0.11 kcal/mol
AGGGTCACGTGTGTGA | 0.04 kcal/mol
TTCTGCACGTGGCGTA | 0.02 kcal/mol
GGGGCCACGTGGATAT | 0.02 kcal/mol
CGGGCCACGTGGGTAG | -0.31 kcal/mol
GGCGTCACGTGAGTGG | 0.22 kcal/mol
TAATACACGTGATAGT | 0.13 kcal/mol
TCCAGCACGTGGGTGG | -0.25 kcal/mol
TATTGCACGTGGATAG | -0.02 kcal/mol
CTAGTCACGTGGAGTG | 0.02 kcal/mol
TGGTCCACGTGAGTTG | 0.22 kcal/mol
GTAGGCACGTGCTGTG | -0.23 kcal/mol
TGGTGCACGTGTGAGT | 0.09 kcal/mol
TTTTGCACGTGGTTTA | -0.04 kcal/mol
TGGTACACGTGTGTTA | 0.03 kcal/mol
TGGGTCACGTGCCGTG | 0.09 kcal/mol
GAATACACGTGGGATT | 0.17 kcal/mol
GAGGGCACGTGCGCAT | -0.03 kcal/mol
TGTTGCACGTGACGGT | 0.12 kcal/mol
TGCGACACGTGTATAG | 0.15 kcal/mol
TTTGTCACGTGTTGCC | 0.16 kcal/mol
AGCGGCACGTGTCTGT | -0.07 kcal/mol
TGGTTCACGTGGCGTA | 0.21 kcal/mol
GCGATCACGTGGGGAT | 0 kcal/mol
GGCGCCACGTGGGGTG | -0.2 kcal/mol
GGTGGCACGTGCCTTG | -0.12 kcal/mol

Sequence | relative binding free energy
AGGGTCACGTGTAGCA | 0.06 kcal/mol
GAGGTCACGTGGCAGT | -0.02 kcal/mol
TGTTCCACGTGGTTGA | 0.07 kcal/mol
TGACTCACGTGATTTG | 0.27 kcal/mol
GGGCTCACGTGGTGTG | 0.18 kcal/mol
GGATACACGTGGGGAC | 0.14 kcal/mol
GGTGACACGTGCATGG | -0.06 kcal/mol
GGTATCACGTGTAGTG | 0.07 kcal/mol
TAATTCACGTGGGGGC | 0.05 kcal/mol
GTAGGCACGTGGGCGC | -0.13 kcal/mol
TGAACCACGTGGTAGG | -0.05 kcal/mol
ATGCCCACGTGGGGTT | -0.15 kcal/mol
ATTGCCACGTGATATG | 0.03 kcal/mol
CGGCGCACGTGGGGGA | -0.29 kcal/mol
CTGTACACGTGTAGTG | -0.1 kcal/mol
TTAGGCACGTGTGTCT | -0.07 kcal/mol
GGTTTCACGTGGGGAA | 0.27 kcal/mol
TGTGTCACGTGGAAAC | 0.11 kcal/mol
GAGCGCACGTGTTGTA | -0.08 kcal/mol
GGAAACACGTGTTTAG | 0.12 kcal/mol
TATATCACGTGTTATG | 0.08 kcal/mol
GTGGGCACGTGCTCGT | -0.13 kcal/mol
TCATGCACGTGTAGGT | 0.01 kcal/mol
ATGCTCACGTGGGGTA | 0 kcal/mol
TGTGGCACGTGAGTGG | 0.18 kcal/mol
ATTTTCACGTGGATTG | 0.15 kcal/mol

Sequence | relative binding free energy
ATTAGCACGTGTTGCA | -0.19 kcal/mol
TTTATCACGTGTCAGG | 0.19 kcal/mol
TTTGTCACGTGACTTG | 0.12 kcal/mol
CAAAGCACGTGGAGGT | -0.14 kcal/mol
TACTGCACGTGGTGAG | -0.1 kcal/mol
CGTTTCACGTGGAGCG | 0.4 kcal/mol
TGTTCCACGTGTATAG | 0.06 kcal/mol
GCGGGCACGTGTCGTT | 0.01 kcal/mol
CTTTGCACGTGAAGAG | 0.2 kcal/mol
AGATTCACGTGACGGT | 0.28 kcal/mol
TTACGCACGTGGAGGT | -0.21 kcal/mol
ATGAACACGTGAGCGG | 0.26 kcal/mol
GTTCGCACGTGTTGGC | 0.17 kcal/mol
GGACTCACGTGTAGTG | 0.14 kcal/mol
ATAAACACGTGAGGTT | 0.24 kcal/mol
GTGTGCACGTGTCGCG | -0.07 kcal/mol
TTCATCACGTGGCGGG | 0.08 kcal/mol
CGTATCACGTGTATTG | 0.03 kcal/mol
ATTTGCACGTGCAGTT | -0.1 kcal/mol
TGTTACACGTGCGATG | 0.1 kcal/mol
GGGAGCACGTGTAGCG | -0.12 kcal/mol
TTGAGCACGTGTTGTT | 0.03 kcal/mol
AATGGCACGTGTGTAT | -0.13 kcal/mol
TTGGGCACGTGTGATC | 0.06 kcal/mol
GGGATCACGTGGGATT | 0.21 kcal/mol
AGGGGCACGTGGTGTG | -0.18 kcal/mol

Sequence | relative binding free energy
AAGAGCACGTGAGCGG | 0.11 kcal/mol
AGTATCACGTGGGAGA | 0.04 kcal/mol
GGAGGCACGTGTGCTG | 0.03 kcal/mol
GTTCACACGTGTAGTG | 0.05 kcal/mol
GAGTACACGTGTTGGT | 0.1 kcal/mol
AGAGGCACGTGCCTGG | -0.22 kcal/mol
TGTGCCACGTGGGATG | -0.22 kcal/mol
GGCGACACGTGAGCGT | 0.25 kcal/mol
TGGTACACGTGTGGGT | 0.12 kcal/mol
TGAGGCACGTGGGGGT | -0.22 kcal/mol
TGAGGCACGTGTATAG | -0.11 kcal/mol
GGGTACACGTGAAGAT | 0.29 kcal/mol
GGGGACACGTGATGTA | 0.11 kcal/mol
GTTTTCACGTGTCACG | 0.37 kcal/mol
TTTGACACGTGGTCCT | 0.02 kcal/mol
GTATTCACGTGTGGAT | 0.19 kcal/mol
TCGGACACGTGGGATT | -0.12 kcal/mol
TAGGTCACGTGCAGAG | 0.17 kcal/mol
GTGTTCACGTGAGGAT | 0.43 kcal/mol
CAATGCACGTGTAGTT | 0.14 kcal/mol
ATAGTCACGTGCGGGT | 0.05 kcal/mol
TCGATCACGTGTTTGT | -0.02 kcal/mol
AATGTCACGTGTTTTG | 0.08 kcal/mol
ATGAACACGTGTTTGT | -0.09 kcal/mol
GCGCGCACGTGGGGGA | -0.15 kcal/mol
TTCGTCACGTGTATAG | 0.05 kcal/mol

Sequence | relative binding free energy
TGTGGCACGTGTCTTG | -0.07 kcal/mol
TGATGCACGTGCGTAG | -0.14 kcal/mol
TGTGGCACGTGGAATG | 0.05 kcal/mol
GGTAGCACGTGGTTAA | -0.01 kcal/mol
ACAATCACGTGGAGGG | 0.08 kcal/mol
TAACGCACGTGGTGTA | -0.23 kcal/mol
TGTTCCACGTGTGATC | 0.28 kcal/mol
TTATTCACGTGGATAC | 0.24 kcal/mol
ATCTGCACGTGTTGTT | 0.06 kcal/mol
CTCGTCACGTGTAGTG | 0.04 kcal/mol
AGAGGCACGTGTGAGA | 0.09 kcal/mol
TTAGTCACGTGGACTG | 0.03 kcal/mol
TGCGTCACGTGGACGG | 0.05 kcal/mol
AGATTCACGTGTACTT | 0.49 kcal/mol
CGTTTCACGTGCTGGT | 0.18 kcal/mol
AGGCTCACGTGTAAGG | 0.12 kcal/mol
TCTTGCACGTGTTTGG | 0.06 kcal/mol
AATTTCACGTGTTATG | 0.28 kcal/mol
TGGTACACGTGCAGCG | 0.14 kcal/mol
TAAGGCACGTGTTAGG | 0.01 kcal/mol
AATATCACGTGGGGCT | 0.02 kcal/mol
GAATACACGTGTTTAT | 0.24 kcal/mol
